In all, about 33,000 sequences were measured (“E-score (-0.5 to 0.5)”: median about -0.054, highest 2% from about 0.35 on). The list shows a part of the results.
target: T1, Stb5 (UniProt P38699); experiment: PBM E-score (8-mer binding enrichment) (E-score (-0.5 to 0.5)); higher = stronger / more preferred TF binding; most listed sequences are background and not binding sites; settings: protein concentration: 200 nM; construct: GST-full length
T1 sequence: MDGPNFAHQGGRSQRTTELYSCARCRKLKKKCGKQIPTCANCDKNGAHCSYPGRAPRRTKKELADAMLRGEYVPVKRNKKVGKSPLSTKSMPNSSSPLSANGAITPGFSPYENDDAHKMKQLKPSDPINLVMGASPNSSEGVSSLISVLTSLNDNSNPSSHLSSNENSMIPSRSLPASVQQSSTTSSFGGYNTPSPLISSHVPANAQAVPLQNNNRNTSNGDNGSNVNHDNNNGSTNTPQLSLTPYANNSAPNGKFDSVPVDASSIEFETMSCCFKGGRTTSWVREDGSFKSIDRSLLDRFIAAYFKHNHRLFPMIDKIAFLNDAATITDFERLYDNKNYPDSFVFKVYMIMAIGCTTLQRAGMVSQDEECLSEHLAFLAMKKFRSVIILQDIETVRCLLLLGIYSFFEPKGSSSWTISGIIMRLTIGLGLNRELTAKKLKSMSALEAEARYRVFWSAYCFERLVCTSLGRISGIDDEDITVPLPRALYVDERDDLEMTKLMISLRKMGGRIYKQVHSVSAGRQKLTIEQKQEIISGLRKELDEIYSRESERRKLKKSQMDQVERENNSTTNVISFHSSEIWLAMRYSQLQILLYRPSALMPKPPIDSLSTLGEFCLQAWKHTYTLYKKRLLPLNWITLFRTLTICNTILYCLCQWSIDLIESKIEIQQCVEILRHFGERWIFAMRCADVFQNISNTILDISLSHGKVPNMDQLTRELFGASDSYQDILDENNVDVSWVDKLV
Procedure, shortened: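 Yeast transcription factors, full-length or as DNA-binding domains, were expressed with a GST tag using PURExpress in vitro transcription/translation. At about 100-200 nM they were applied to universal all-10-mer Agilent arrays, double-stranded by primer extension on fresh or once-stripped slides. Fluorescent anti-GST detected bound protein, and masliner normalised the scans. E-scores for ungapped eight-base words, pooled with reverse complements, came from the Universal PBM Analysis Suite.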

Row | Sequence | PBM E-score
1 | GTGCCCAC | -0.104
2 | CCCCCGCC | 0.313
3 | GACACAGC | 0.0922
4 | AGAGTTAT | -0.115
5 | GACGAGTA | -0.072
6 | TAGGGCGA | -0.281
7 | CAAGTCTA | -0.192
8 | TAATGAGA | -0.201
9 | CCTGGTCC | -0.127
10 | CCCTCCGA | 0.0129
11 | AATCTGAC | -0.1
12 | AGTGATTA | 0.064
13 | CATACTTA | -0.2
14 | GGCTCTCA | -0.102
15 | ATAGAAAT | 0.00501
16 | CGACTATC | -0.0126
17 | ATCCCCAA | -0.183
18 | GAGCACGC | -0.214
19 | AAAGTCGA | -0.226
20 | ACCGTCTA | 0.247
21 | AACACGCT | -0.114
22 | AATCATAC | -0.069
23 | CTGTGTCC | 0.136
24 | ACTCTAGC | -0.126
25 | CTTTTCTC | -0.106

Row | Sequence | PBM E-score
26 | ACTCGGTA | -0.00538
27 | AAGATCAG | -0.182
28 | TAGCCCTA | -0.173
29 | CCTATTCG | -0.00606
30 | CGCGCAGC | 0.149
31 | CTCTGATA | 0.103
32 | CTGGTTGC | 0.0322
33 | GAATTAAC | -0.0887
34 | CAGTAGAC | -0.104
35 | GGTGGTTA | 0.193
36 | AACACAGA | -0.21
37 | CACGGCGC | 0.246
38 | ACGGCTAT | 0.134
39 | GGGCTCGA | 0.0293
40 | AAAATTGG | -0.156
41 | CCGTTGTC | 0.262
42 | GCCGGAAA | 0.187
43 | CTAAGGAG | -0.33
44 | CCCGTATC | 0.0175
45 | TAGTCACA | -0.242
46 | GGTTGCAC | -0.0543
47 | GAGCCTCA | -0.19
48 | GAATCTAA | 0.00348
49 | CATCCTAC | -0.127
50 | AGCCACTG | -0.19

Row | Sequence | PBM E-score
51 | AAAGGAAT | -0.0321
52 | AGCTGGCC | -0.158
53 | GCGATTTA | -0.0536
54 | GATAGGGC | -0.229
55 | CCCCCGAA | 0.213
56 | GGCACGGA | 0.0996
57 | CTCTTGTA | -0.145
58 | CCTCTCTA | -0.101
59 | GGGTACAC | -0.00181
60 | AAAACCAC | 0.125
61 | GCGCGTGA | -0.0851
62 | GACGCTTA | -0.193
63 | ACACTAGG | -0.105
64 | CTCCATAC | -0.0338
65 | GAAGCTCC | 0.233
66 | CATACAGC | 0.00537
67 | CCCAAGCA | -0.194
68 | GCTCCAGC | -0.00568
69 | GGGAGCAA | -0.0856
70 | GCCACGGC | 0.262
71 | AGTCGTAA | -0.0723
72 | CACGCGGC | 0.0687
73 | CTCTGTTC | -0.239
74 | CTAGAAAA | 0.0223
75 | CGATGGGC | -0.00924

Row | Sequence | PBM E-score
76 | ATGAGCTC | -0.262
77 | CAATACTC | -0.11
78 | AAGGACAC | -0.165
79 | ACTGTCGC | -0.0587
80 | GGTAAAAA | 0.228
81 | TATCCAAA | -0.241
82 | TCTGATAA | -0.199
83 | GCTAAAGA | 0.136
84 | GTCCTTTA | 0.0817
85 | CGCGCCAG | 0.256
86 | ACCTCGTC | -0.0783
87 | GGCGGGAC | 0.28
88 | GATTCCAC | -0.0439
89 | AGGACCAC | -0.182
90 | ACGTAGAT | -0.246
91 | CACAAAGA | -0.138
92 | GGCTTCGA | 0.0803
93 | GGTGGAAA | 0.0706
94 | GTGCCTCA | -0.0942
95 | GGATAATA | 0.197
96 | GTCGCAAC | 0.0168
97 | CTAACATA | -0.0708
98 | AAAGATTC | -0.226
99 | AAGGTGAC | -0.158
100 | AACATGGG | 0.0505

Row | Sequence | PBM E-score
101 | GGCATAAC | 0.0221
102 | CTGTCGGA | 0.349
103 | ACACGTGG | -0.177
104 | AGATGCTA | -0.107
105 | ATGACAGG | -0.102
106 | AAATGCAT | -0.0958
107 | ACAAGTCA | -0.151
108 | TCCAGCCA | -0.187
109 | ACCCTTGG | -0.207
110 | CCAATCGC | -0.15
111 | AGCAAGGC | -0.0791
112 | TACAGTGA | -0.344
113 | TGCAGGCA | -0.157
114 | AACTTGCT | -0.123
115 | TATTCCGA | 0.17
116 | ATTACGTC | -0.0364
117 | CGCATAAC | 0.0483
118 | TACTGCAA | -0.235
119 | ACCTGGAG | -0.133
120 | GCTCGACA | -0.197
121 | CAGGCCTC | -0.279
122 | GACTTCCC | -0.02
123 | CGAAACAC | -0.0151
124 | AACAAGGC | -0.23
125 | CACGATTC | 0.0632

Row | Sequence | PBM E-score
126 | GCTTAACC | -0.268
127 | AACCACTA | -0.0604
128 | GAGTAAGA | -0.0203
129 | GGACGGGA | 0.1
130 | AATATGAT | -0.0357
131 | AGTGACGC | -0.0527
132 | GTTCCTGA | -0.302
133 | CGCTTTTA | 0.19
134 | ATCACGGC | 0.162
135 | AGTGCAGC | -0.191
136 | ACGATCGA | -0.151
137 | CTAGAGGC | -0.262
138 | CCGTCTCG | 0.155
139 | GTGCCGGA | 0.305
140 | AATTGCCA | -0.27
141 | CCATAGCG | -0.00058
142 | ATTGTCCG | 0.372
143 | CGCATCGA | 0.022
144 | AACACCTC | 0.0132
145 | AGCCAGCT | -0.157
146 | TATCACCA | 0.161
147 | GGTACAAA | 0.202
148 | CTCGATGA | -0.154
149 | CATTGCAA | -0.0709
150 | TAAAGCAA | -0.0115

Row | Sequence | PBM E-score
151 | CTCGCCCA | -0.267
152 | AGGACGAA | -0.0407
153 | AATGCCGT | 0.425
154 | CGCAGTAG | -0.0728
155 | CATGAGCC | -0.087
156 | ATTGGGGA | -0.0271
157 | AATCACTA | -0.155
158 | TGCAGCCA | -0.187
159 | CTAGTGAC | -0.186
160 | AGCCTTCA | -0.0978
161 | CGCCAAAC | -0.0389
162 | GAACCTAA | 0.0325
163 | GGAGGGAA | -0.0657
164 | CAGACAGG | -0.0478
165 | AGATTGGA | -0.111
166 | CCTATACC | 0.0759
167 | GGCGATCA | -0.00285
168 | GAAGATGC | -0.17
169 | ACGCGGTG | 0.35
170 | AATACAAA | -0.0524
171 | AAGGGCTG | -0.26
172 | CCGATATC | 0.228
